Here are results for 43 compounds from ChEMBL document CHEMBL4888484, “Replenishing the malaria drug discovery pipeline: Screening and hit evaluation of the MMV Hit Generation Library 1 (HGL1) against asexual blood stage Plasmodium falciparum ,using a nano luciferase reporter read-out” (2022).

The whole screen tested about 150,000 compounds, of which about 540 (0.36%) showed an effect of 50% or more. Some of the results follow.

This test relates to Plasmodium falciparum. The test can be described thus: Primary screen in NF54 nanoGlo assay, in single point, at 2uM, 72h; a lower Z score goes with more inhibition. It counts as functional, Erythrocyte. The settings on record: timepoint 72 hour.
Turning to `Cc1ncc(-c2nc(-c3ccco3)nn2C(C)(C)C)cn1`, the “% Inhibition” value amounted to 1% and the Z score is recorded as -0.07.
With `O=C(c1cc(C2CC2)n(CC(=O)N(Cc2ccccc2)c2ccccc2)n1)N1CCOCC1`, the “% Inhibition” value is -2% and the Z score worked out at 0.45.
The matching figures for `O=S(=O)(c1ccc(F)cc1)N1CCN(Cc2noc(-c3ccc(Cl)cc3Cl)n2)CC1`: 8% and -1.16.
As for `O=C(COc1ccc2c(c1)OCO2)Nc1ccc2c(c1)COC2=O`, the “% Inhibition” value was -3% and the Z score was 0.58.
Consider `c1ccc(CNc2nnc(NC3CCCCC3)o2)cc1`, for which the “% Inhibition” value was -9% and the Z score came to 1.83.
The matching figures for `O=C(NC1CCCCC1)c1nn(-c2ccc(F)cc2)c2ccccc2c1=O`: -15% and 2.13.
In the same order, the values of `Cc1ccc(CN(C)Cc2c(C)noc2C)o1` are 27% and -3.03.
In the same order, the values of `COc1ncncc1NC(=O)N[C@@H](Cc1ccccc1)C1CC1` are 7% and -0.96.
Regarding `Cc1nc(-c2nnc(NC(=O)NCc3cccs3)o2)cs1`, the “% Inhibition” value is on record as -8% and the Z score is given as 1.1.
`O=C(CN1CCN(c2ccccc2F)C1=O)NCCc1cccs1`: the “% Inhibition” value is given as -5% and the Z score is 0.56.
For `CCn1nc(C2CC2)cc1C(=O)Nc1ccnn1-c1ccc(C)nn1`, the “% Inhibition” value is -19% and the Z score was 1.88.
With `CC(C)C[C@H](O)C(=O)NCCn1cc(Cl)cn1`, the “% Inhibition” value was -7% and the Z score amounted to 0.82.
The matching figures for `CC1(C)Cc2cc(C(=O)N[C@@](C)(Cn3cccn3)C(N)=O)ccc2O1`: -4% and 0.56.
The matching figures for `Cn1nc(CN(C(=O)c2ccco2)C2CCCC2)c2c1CCC2`: -7% and 1.29.
In the same order, the values of `COCc1ccc(CN2CCC(n3nccc3NC(=O)C3CCCC3)CC2)o1` are 1% and -0.11.
With `N#CCC[C@H](C#N)CN1C(=O)NC2(Cc3ccccc3C2)C1=O`, the “% Inhibition” value is -8% and the Z score is 1.2.
The matching figures for `CCOc1ccc(N2CCN(CC(=O)NCCCN3CCCC3=O)C2=O)cc1`: -6% and 0.96.
The matching figures for `COc1ccc2ncn(CCN3CCCC3=O)c(=O)c2c1`: -4% and 0.46.
In the same order, the values of `O=C1CN(C(=O)C[C@H]2CCCOC2)c2cc(F)c(F)cc2N1` are -4% and 0.59.
In the case of `OC1(c2nc(-c3ccc(Br)o3)no2)CCCCC1`, the “% Inhibition” value came to 13% and the Z score is -1.71.
In the same order, the values of `Cc1nn(CCNc2cccc(C#N)n2)c(C)c1C` are -15% and 2.95.
The matching figures for `O=C(O)CCNC(=O)[C@H]1CC[C@H](Cn2nnc3ccccc3c2=O)CC1`: -15% and 2.01.
For `CN(C)c1ncccc1NC(=O)C1C2CCCC21` (stereo unspecified), the “% Inhibition” value turned out to be 1% and the Z score was -0.19.
In the same order, the values of `C[C@@H](C(=O)Nc1nc2c(s1)CCCC2)n1cccn1` are -15% and 2.06.
In the case of `COc1cc(NC(c2ccccc2)c2ccccc2)cc(OC)c1OC`, the “% Inhibition” value came to 12% and the Z score is listed as -1.58.
The matching figures for `COc1cccc(CNC(=O)c2ccc(CN3CC(=O)N4CCCC[C@H]4C3=O)cc2)c1`: -6% and 0.71.
With `O=C(NCCCc1ccccc1)c1cc2n(n1)CCN(Cc1ccccc1Cl)C2=O`, the “% Inhibition” value is given as -12% and the Z score was determined as 1.34.
`COc1ccc(F)cc1C(=O)N1C[C@@H](CC(=O)O)[C@@H](c2c[nH]nn2)C1`: the “% Inhibition” value worked out at 0% and the Z score was -0.02.
In the same order, the values of `O=C(NC1(C(=O)O)CCCCC1)c1ccc2c(c1)OCCNC2` are 1% and -0.07.
In the same order, the values of `COCCN1C[C@@H](c2nc(-c3ccc(F)c(C)c3)no2)CC1=O` are -9% and 1.27.
In the same order, the values of `CC1(C)C(c2ccccc2)CCN1C(=O)Nc1cnc2c(c1)CC(N)CC2` (stereo unspecified) are -2% and 0.23.
On to `CC(C)CN(Cc1ccsc1)C(=O)c1ncc(F)cc1F`, for which the “% Inhibition” value is on record as -3% and the Z score turned out to be 0.45.
For the compound `COC(=O)c1cccc(NC(=O)c2cn(C[C@H](O)c3ccccc3)nn2)c1`, the “% Inhibition” value was -5% and the Z score was 1.
In the same order, the values of `Cn1ncc2c(=O)n(Cc3nc(-c4c(F)cccc4F)cs3)cnc21` are -14% and 1.97.
Turning to `CN(Cc1ccco1)S(=O)(=O)N(C)C1CCCCC1`, the “% Inhibition” value amounted to 3% and the Z score was -0.4.
For the compound `Cc1cc(S(=O)(=O)Nc2cnoc2C)sc1Cl`, the “% Inhibition” value amounted to 13% and the Z score is -2.47.
For `COc1ccccc1CC1CCCN(C(C)c2nnc(C)o2)C1` (stereo unspecified), the “% Inhibition” value is -3% and the Z score turned out to be 0.44.
The matching figures for `Cc1nc(C)c(C(=O)Nc2ccc3c(c2)OCCO3)s1`: -6% and 1.02.
On to `CCOc1ccc(Cl)cc1CN(C)C(=O)[C@@H]1CCC(=O)NC(=O)N1`, for which the “% Inhibition” value is given as -5% and the Z score is 0.53.
The matching figures for `CN(CCCc1cccnc1)C[C@H]1CCCCN1C`: -13% and 1.15.
For `COc1cc2c(cc1OC)CN(C(=O)OC(C)(C)C)[C@H](C(=O)NCc1ccco1)C2`, the “% Inhibition” value was -8% and the Z score amounted to 1.59.
The matching figures for `CC(C)CCc1ccc(N2C(=O)N[C@@](C)(CCF)C2=O)nc1`: -5% and 0.64.
Turning to `Cc1ccccc1C(NC(C)CS(=O)(=O)c1ccccc1)C1CC1` (stereo unspecified), the “% Inhibition” value is recorded as -6% and the Z score was found to be 0.58.

Usually % Inhibition stands for the drop in the measured response relative to a control, in per cent.
